Common to all, as to test: glycan array binding signal (z-score within array); higher = stronger binding
Common to all, as to conditions: glycan notation: IUPAC condensed, linker removed

The target in test [1] is Gal(b1-4)GlcNAc(b1-2)[Gal(b1-4)GlcNAc(b1-4)]Man(a1-3)[Gal(b1-4)GlcNAc(b1-2)[Gal(b1-4)GlcNAc(b1-6)]Man(a1-6)]Man(b1-4)GlcNAc(b1-4)GlcNAc. The method in brief: (§1)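 Columns mapping to the same glycan were averaged after glycan names were converted to IUPAC-condensed notation. The data come from 3228 arrays in the Consortium for Functional Glycomics database, limited to those with an available protein sequence. Binding is reported as a within-array Z-score averaged across arrays of one protein sequence and across linkers.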

In test [2] the target is Gal(b1-4)GlcNAc(b1-2)[Gal(b1-4)GlcNAc(b1-4)]Man(a1-3)[GlcNAc(b1-4)][Gal(b1-4)GlcNAc(b1-2)Man(a1-6)]Man(b1-4)GlcNAc(b1-4)GlcNAc. The method in brief:
as §1

The target in test [3] is Gal(b1-4)GlcNAc(b1-2)[Gal(b1-4)GlcNAc(b1-4)]Man(a1-3)[GlcNAc(b1-4)][Gal(b1-4)GlcNAc(b1-2)[Gal(b1-4)GlcNAc(b1-6)]Man(a1-6)]Man(b1-4)GlcNAc(b1-4)GlcNAc. The method in brief: as §1
Test [4] concerns the target Gal(b1-4)GlcNAc(b1-2)[Gal(b1-4)GlcNAc(b1-6)]Man(a1-6)[Gal(b1-4)GlcNAc(b1-2)Man(a1-3)]Man(b1-4)GlcNAc(b1-4)GlcNAc. The method in brief: as §1
Test [5] addresses Gal(b1-4)GlcNAc(b1-2)[Gal(b1-4)GlcNAc(b1-6)]Man(a1-6)[Gal(b1-4)GlcNAc(b1-2)Man(a1-3)]Man(b1-4)GlcNAc(b1-4)[Fuc(a1-6)]GlcNAc. The procedure, abridged:
as §1

For test [6], the target named is Gal(b1-4)GlcNAc(b1-2)[Gal(b1-4)GlcNAc(b1-6)]Man(a1-6)[GlcNAc(b1-4)][Gal(b1-4)GlcNAc(b1-2)Man(a1-3)]Man(b1-4)GlcNAc(b1-4)GlcNAc. The procedure, abridged: as §1
The target in test [7] is Gal(b1-4)GlcNAc(b1-2)[Gal(b1-4)GlcNAc(b1-6)]Man(a1-6)[GlcNAc(b1-4)][Gal(b1-4)GlcNAc(b1-2)[Gal(b1-4)GlcNAc(b1-4)]Man(a1-3)]Man(b1-4)GlcNAc(b1-4)[Fuc(a1-6)]GlcNAc. The method in brief: as §1
In test [8] the target is Gal(b1-4)GlcNAc(b1-3)Gal(b1-3)GalNAc. The method in brief: as §1
Test [9] deals with Gal(b1-4)GlcNAc(b1-3)Gal(b1-3)GlcNAc. The procedure, abridged:
as §1

Test [10] concerns the target Gal(b1-4)GlcNAc(b1-3)Gal(b1-4)Glc. The method in brief: as §1
Test [11] deals with Gal(b1-4)GlcNAc(b1-3)Gal(b1-4)GlcNAc. The method in brief:
as §1

The target of test [12] is Gal(b1-4)GlcNAc(b1-3)Gal(b1-4)GlcNAc(b1-2)Man(a1-3)[Gal(b1-4)GlcNAc(b1-3)Gal(b1-4)GlcNAc(b1-2)Man(a1-6)]Man(b1-4)GlcNAc(b1-4)GlcNAc. The method in brief:
as §1

In test [13] the target is Gal(b1-4)GlcNAc(b1-3)Gal(b1-4)GlcNAc(b1-2)Man(a1-3)[Gal(b1-4)GlcNAc(b1-3)Gal(b1-4)GlcNAc(b1-2)Man(a1-6)]Man(b1-4)GlcNAc(b1-4)[Fuc(a1-6)]GlcNAc. The method in brief:
as §1

Test [14] deals with Gal(b1-4)GlcNAc(b1-3)Gal(b1-4)GlcNAc(b1-2)[Gal(b1-4)GlcNAc(b1-3)Gal(b1-4)GlcNAc(b1-6)]Man(a1-6)[Gal(b1-4)GlcNAc(b1-3)Gal(b1-4)GlcNAc(b1-2)Man(a1-3)]Man(b1-4)GlcNAc(b1-4)GlcNAc. The method in brief:
as §1

For test [15], the target named is Gal(b1-4)GlcNAc(b1-3)Gal(b1-4)GlcNAc(b1-2)[Gal(b1-4)GlcNAc(b1-3)Gal(b1-4)GlcNAc(b1-6)]Man(a1-6)[Gal(b1-4)GlcNAc(b1-3)Gal(b1-4)GlcNAc(b1-2)Man(a1-3)]Man(b1-4)GlcNAc(b1-4)[Fuc(a1-6)]GlcNAc. The procedure, abridged: as §1
Test [16] deals with Gal(b1-4)GlcNAc(b1-3)Gal(b1-4)GlcNAc(b1-3)Gal(b1-4)GlcNAc. The method in brief: as §1
Test [17] addresses Gal(b1-4)GlcNAc(b1-3)Gal(b1-4)GlcNAc(b1-3)Gal(b1-4)GlcNAc(b1-2)Man(a1-3)[Gal(b1-4)GlcNAc(b1-3)Gal(b1-4)GlcNAc(b1-3)Gal(b1-4)GlcNAc(b1-2)Man(a1-6)]Man(b1-4)GlcNAc(b1-4)GlcNAc. The method in brief:
as §1

In test [18] the target is Gal(b1-4)GlcNAc(b1-3)Gal(b1-4)GlcNAc(b1-3)Gal(b1-4)GlcNAc(b1-2)Man(a1-3)[Gal(b1-4)GlcNAc(b1-3)Gal(b1-4)GlcNAc(b1-3)Gal(b1-4)GlcNAc(b1-2)Man(a1-6)]Man(b1-4)GlcNAc(b1-4)[Fuc(a1-6)]GlcNAc. The procedure, abridged: as §1
Test [19] deals with Gal(b1-4)GlcNAc(b1-3)Gal(b1-4)GlcNAc(b1-3)Gal(b1-4)GlcNAc(b1-2)[Gal(b1-4)GlcNAc(b1-3)Gal(b1-4)GlcNAc(b1-3)Gal(b1-4)GlcNAc(b1-6)]Man(a1-6)[Gal(b1-4)GlcNAc(b1-3)Gal(b1-4)GlcNAc(b1-3)Gal(b1-4)GlcNAc(b1-2)Man(a1-3)]Man(b1-4)GlcNAc(b1-4)[Fuc(a1-6)]GlcNAc. The method in brief:
as §1

Test [20] deals with Gal(b1-4)GlcNAc(b1-3)Gal(b1-4)GlcNAc(b1-3)Gal(b1-4)GlcNAc(b1-3)Gal(b1-4)GlcNAc(b1-2)Man(a1-3)[Gal(b1-4)GlcNAc(b1-3)Gal(b1-4)GlcNAc(b1-3)Gal(b1-4)GlcNAc(b1-3)Gal(b1-4)GlcNAc(b1-2)Man(a1-6)]Man(b1-4)GlcNAc(b1-4)GlcNAc. The method in brief: as §1
The target in test [21] is Gal(b1-4)GlcNAc(b1-3)Gal(b1-4)GlcNAc(b1-3)Gal(b1-4)GlcNAc(b1-3)Gal(b1-4)GlcNAc(b1-2)Man(a1-3)[Gal(b1-4)GlcNAc(b1-3)Gal(b1-4)GlcNAc(b1-3)Gal(b1-4)GlcNAc(b1-3)Gal(b1-4)GlcNAc(b1-2)Man(a1-6)]Man(b1-4)GlcNAc(b1-4)[Fuc(a1-6)]GlcNAc. The method in brief:
as §1

Test [22] concerns the target Gal(b1-4)GlcNAc(b1-3)Gal(b1-4)GlcNAc(b1-3)Gal(b1-4)GlcNAc(b1-3)Gal(b1-4)GlcNAc(b1-2)[Gal(b1-4)GlcNAc(b1-3)Gal(b1-4)GlcNAc(b1-3)Gal(b1-4)GlcNAc(b1-3)Gal(b1-4)GlcNAc(b1-6)]Man(a1-6)[Gal(b1-4)GlcNAc(b1-3)Gal(b1-4)GlcNAc(b1-3)Gal(b1-4)GlcNAc(b1-3)Gal(b1-4)GlcNAc(b1-2)Man(a1-3)]Man(b1-4)GlcNAc(b1-4)[Fuc(a1-6)]GlcNAc. The procedure, abridged:
as §1

Test [23] has as its target Gal(b1-4)GlcNAc(b1-3)Gal(b1-4)GlcNAc(b1-3)Gal(b1-4)GlcNAc(b1-3)Gal(b1-4)GlcNAc(b1-3)Gal(b1-4)GlcNAc(b1-2)Man(a1-3)[Gal(b1-4)GlcNAc(b1-3)Gal(b1-4)GlcNAc(b1-3)Gal(b1-4)GlcNAc(b1-3)Gal(b1-4)GlcNAc(b1-3)Gal(b1-4)GlcNAc(b1-2)Man(a1-6)]Man(b1-4)GlcNAc(b1-4)GlcNAc. The method in brief:
as §1

This is one part of the list.

B1: AMA (Arum maculatun) (protein)
chain: MAKLLLLLLLPAIVGLAVPRSAAAVGSNYMLSGETLNTDGRLTNGELTLIMQVDCNLVLYHGGWQSNTANNGRDCKLTLTDFGELVIKSGTGSTVWSSGSKQSMKGNYAAVVHPEGRLVIYGPSVFKINPSGAGLNGLPLRNIPLTNNMLFSGQVLYGDGTLSARNHKLVMQGDCNMVLYGGKYGWQSNTHGNGKYCFAMLTHKGELVIRDDDFKSVWSSKSSSKQGDYVFILQDDSLAIIYGPAVFSTGSKKMISMVTN
As for B1, the “glycan array binding signal (z-score)” value in test [1] was 2.65; in test [2], -0.221; in test [3], -0.218; in test [4], -0.226; in [5], -0.221; in [6], -0.215. Moreover, the “glycan array binding signal (z-score)” value in test [7] was -0.219; in test [8] it was -0.219; in test [9], -0.212; in test [10] it was -0.217; in test [11], -0.22; in [12], 0.456. In addition, the “glycan array binding signal (z-score)” value in test [13] was 2.23; in test [14], -0.214; in test [15], -0.189; in test [16] it was -0.223; in [17], 0.191; in [18], 1.16. Further, the “glycan array binding signal (z-score)” value in [19] was -0.199; in test [20], 0.09; in test [21] it was 0.52; in test [22] it was -0.201; in test [23] it was -0.156.
